Data as given in the RNAGym collection of RNA variant scans (doi:10.7554/elife.90254).
The source gives no read counts; variants with many changes may rest on few reads.

B1: LINE1-full (parent)
chain: UACGUAGGUGGUUUUCCCCUGAUAGUGCUAAGGGGGCCUGGAAGUUUGGACUGGGCAGAGCUCAACACAGCGUGGCAAAGUGGCUGUGGCUAGACUGCCUCUCUGGAUUCCUCGUCACUCAGCAGGGCAUCUCUGAGAGAAAUGCC

Variants of: B1
Assay: self-cleavage, relative activity (ratio to wild type); higher = more cleavage; in vitro, sequencing; the parent is a self-cleaving ribozyme

Variant	self-cleavage
A6G A64G U130C U134A A140U	0.44
A6G A65G A94G	0.26
A6G A65U U102G U119C	1.64
A6G A77G U87C	0.3
A6G A78G A92U	0.15
A6G A78G A94G	0.84
A6G A78G A121G	1.27
A6G A79G U81C G83A A142G	1.59
A6G A94G A107U	1.45
A6G A117U U119A U143G	1.05
A6G A124G U134C	2.17
A6G C16U G60A A69G	0.1
A6G C18U G114U A117G	0.97
A6G C19U U46C A136G	1.27
A6G C28U U45A A129U G139U	0.66
A6G C38A A121G A142G	0.54
A6G C38G A43G U87G	0.66
A6G C38U U47G C131A	0.7
A6G C38U U87A	0.1
A6G C51U A65G U85A U96A	0.17
A6G C71A U81A A94G A140G	0.21
A6G C113A A138G	0.38
A6G C123A U132A	0.97
A6G G7U U14C A67G U109A A142G	0.54

Variant	self-cleavage
A6G G8A U104C	0.92
A6G G10A U47A U115C	0.71
A6G G21A G36A A67C A140G	0.12
A6G G27A U47A C123U	1.53
A6G G33A G36C	0.91
A6G G34A A65G	0.08
A6G G41A U52A U112C U143C	1.66
A6G G55A A92G	0.05
A6G G60A U87G U104C A117U U119A	0.1
A6G G60C C84U A121U G127A U130C A140G	0.05
A6G G75A A77G	1.01
A6G G88A U100C U119C	0.19
A6G G89A A107G U115C A121G A141G	0.24
A6G U9A A43G U47C	0.48
A6G U9A U13C U115C	1.5
A6G U9A U14C C37G A50G U85A A107G A142C	0
A6G U9A U26C U62A	0.33
A6G U9A U102C A138U	0.9
A6G U9A U143C	0.81
A6G U9C C19G	0
A6G U12A A22G A50G	1.04
A6G U12A A78G A142G	0.32
A6G U12A U20C G33U A67G U143C	0.48
A6G U12A U109C	1.1

Variant	self-cleavage
A6G U12C A30G G34U U62A A136U	0.1
A6G U12C A30U U100C A107G U108C	0
A6G U12C G70A U85C	0.7
A6G U12C U52C G125U	0.63
A6G U12G A42G A64G U119A	0
A6G U12G A140G	0.95
A6G U12G U20C A43G A50U U134C A141G	1.15
A6G U13A A65G A140G	0
A6G U13A U26A A31G U119C	0.51
A6G U13A U96C	0.08
A6G U13A U112C	0.82
A6G U13C A57U C66U A79U	0.14
A6G U13C G126U C128U U143A	0.79
A6G U13C U26C G33A G49A	0.77
A6G U13C U73C C131A	1.75
A6G U14C A67G	0
A6G U14C A77G U96C	0
A6G U14C A92G	0.4
A6G U14C A92G A138G	0.34
A6G U14C A124U	0.57
A6G U14C G40A U108C	0.57
A6G U14C U62C U87A U102C	0
A6G U14G G86A U112A A141U	0.14
A6G U15C A94G	0.19

Variant	self-cleavage
A6G U15C A138U	1.58
A6G U15C C28G U104C U115C	0
A6G U15G G89U C90A	0
A6G U20C A67G	0
A6G U20C G74A A92G A136G	0.17
A6G U20C U102C U119C G127A A136G A141G	0.84
A6G U23C A59G A140G	1.02
A6G U23C U45C U87A	0.48
A6G U23C U62A C111G G144A	0
A6G U29C U39G A77G U109C	1.84
A6G U39A G74U	0.73
A6G U39C U102C	0
A6G U45C A94U U132C A142G	0.48
A6G U45C G83A A117G	0.75
A6G U45C U47C A77U U104C	2.04
A6G U46A A50G U62C U130C A142U	0.42
A6G U46A G144U	2.18
A6G U46C U96A C111U A124G	0.2
A6G U47A A78G G125A	1.04
A6G U47A C101U U109A	0.92
A6G U47C A129G	0
A6G U47C A141G	1.34
A6G U52A G75A A141G	1.04
A6G U52C A59U U132C A141G	1.84

Variant	self-cleavage
A6G U52C A77G G126A	0.79
A6G U73C A140G	2.94
A6G U81A U91C	0.42
A6G U81C G82U	0.6
A6G U81C U87C	0
A6G U85A A136U	0.04
A6G U85A C133A	0.14
A6G U85C U96A	0.33
A6G U85C U100C	1.31
A6G U87C A124G	0
A6G U87C A142G	0
A6G U96C U112C A117U	0.13
A6G U104A A141G	0.99
A6G U108A C111U A138G	1.62
A6G U108C A140G	2.7
A6G U109A A117G U132C	0
A6G U109A U132C	1.48
A6G U115C A140G	1.91
A6G U119C A138G	0.89
A6G U130A A140G	0.92
A6G U130C A136G	1.15
A6U A22G A129U U130C A140U	1.97
A6U A31G A138G	0.75
A6U A31U A121C	2.4

Variant	self-cleavage
A6U A31U U91C U119C	1.31
A6U A31U U132A	1.06
A6U A42G G127A	0.73
A6U A43G U85C U119A	0
A6U A50G A78G	0
A6U A50G U85A U87C	0.54
A6U A59G A64U	0.04
A6U A78C U143C	2.51
A6U A79G A124G	0.48
A6U A79G U96C A136U	0.26
A6U A92G A142G	0.14
A6U A129U A138G A141G	1.44
A6U A141G A142U	1.06
A6U C17U C18U	0.44
A6U C19U A69U G70U	0.16
A6U C56A U143C	0.03
A6U C63A G74U A78C U96C	0.07
A6U C63U A79G G122A	0.37
A6U C111A A140G	0.61
A6U G34U A65U A69G U132C	0.35
A6U G35A A59G G127A A136U	0.09
A6U G40A A69U U104C	0
A6U G80A U143C	1.19
A6U G83A U119C U134C A136U	1.84

Variant	self-cleavage
A6U U9A U26G	1
A6U U9C G25A A138G A140G	0.88
A6U U9C U14C G48A	0.85
A6U U9G U14C A43U A92G	0.44
A6U U12A U15A	0.89
A6U U12C U23C	1.33
A6U U13C A121U	1.19
A6U U13G U26A U39C A65G	0
A6U U14A C128U	0.37
A6U U14C C63U A124G	0.33
A6U U15A G58U C63A U112C A138G	0.12
A6U U15C A22G G40U A59G	0
A6U U15C A50G U81A	1.44
A6U U15C C63U U91C	0.32
A6U U15G U39A U73C U85A U134A A138U	0.18
A6U U23C U47C U96C	0
A6U U26A G35A	1.15
A6U U26C A77U U85C	0
A6U U26C U39C A140G	1.21
A6U U39A U81C U143A	0.31
A6U U45A G53A C103U A141G	0.78
A6U U45C A57U C71U A94G U104A	0.3
A6U U47A U109C U143C	1.13
